# Data published in PubChem BioAssay AID1508642 (National Center for Advancing Translational Sciences (NCATS), 2021).
# Hit rate of the full screen: of about 43,000 compounds, about 200 (0.47%) were called active. Not shown: some 12% with an inconclusive outcome. Calls follow the shape of the dose curve; as a rule, active = well fitted cell-killing curve with a large enough effect; inconclusive = small, poorly fitted or top-dose-only effect, or effect the other way; inactive = flat fitted curve, though single readings scatter. The list shows a part of the results.
# Assay: Cell viability qHTS assay in S16 Pmp22-F2sN cells; also: nearly all actives have a fitted effect of over 65% in size
# Details: S16 Pmp22-F2sN Schwann cells (luciferase reporters placed in the Pmp22 gene) viability, CellTiter-Glo, 24 h; series mostly up to 57.5 µM; activity change, negative = cytotoxicity: at the top concentration
# Summary of the method: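 Seed 500-1,000 S16 Pmp22-F2sN cells per well in phenol-red-free DMEM with 10% heat-inactivated FBS; pin-add 23 nL compound; incubate 24 h at 37C; add CellTiter-Glo, wait 15 min protected from light; read luminescence.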
# % is scaled to controls: 0 for no effect and ±100 for the full control effect.
row,Compound,"activity change, negative = cytotoxicity"
1,COc1ccc(-c2nc(Cn3c(=O)cc(-c4ccccc4)c4c(C)nn(C)c43)c(C)o2)cc1OC,inactive: -7.51%
2,CCOc1ccc(Nc2nc3c(S(=O)(=O)c4ccc(CC)cc4)nnn3c3ccc(Cl)cc23)cc1,inactive: 1.85%
3,CC1CCN(S(=O)(=O)c2ccc3c(ccc(=O)n3CC(=O)NCc3ccc(Cl)cc3)c2)CC1,inactive: -1.68%
4,COc1ccc(S(=O)(=O)N(CC(=O)Nc2cc(C)cc(C)c2)c2ccc(Cl)cc2)cc1,inactive: 0.561%
5,CCn1c(C(=O)N2CCC(C(=O)N3CCN(c4ccc(OC)cc4)CC3)CC2)cc2sccc21,inactive: -19.6%
6,COc1ccc(Cl)cc1N=C1NC(=O)CC(C(=O)Nc2ccccc2C(F)(F)F)S1 (stereo not given),inactive: 6.97%
7,CCNc1nc(NC(C)(C)C)nc(Oc2ccc(=O)n(-c3ccccc3)n2)n1,inactive: -1.03%
8,CC(C)Oc1ccc(CNC(=O)c2ccc3nc(C(C)C)oc3c2)cc1,inactive: 1.03%
9,Cc1cc(C)cc(NC(=O)C(CC(C)C)NC(=O)C2CCCCC2)c1 (stereo not given),inactive: 8.74%
10,CN(C)c1ccc(C(=O)Nc2c(C(=O)NC(C)(C)C)oc3ccccc23)cc1,inactive: -3%
11,O=C(c1cccn1-c1nnc(N2CCCCC2)s1)N1CCN(c2ccc(Cl)cc2)CC1,inactive: -6.54%
12,COc1ccc(CCNc2nc3ccc(C)cc3n3cnnc23)cc1OC,inactive: 16.1%
13,CCOC(=O)CSc1nc(-c2ccc(F)cc2)cc(C(F)(F)F)c1C#N,inactive: 1.43%
14,O=C(CSc1nc(-c2ccccc2)no1)N1CCN(c2ccccc2)CC1,inactive: 14.6%
15,CCOc1ccccc1NC(=O)c1cc(S(=O)(=O)N2CCOCC2)cn1C,inactive: 12.2%
16,CCC(=O)N1c2ccccc2C(C)(c2ccccc2)CC1(C)C (stereo not given),inactive: -1.21%
17,CN1CCN(C(=O)c2ccc3c(c2)N(Cc2ccc(F)cc2)C(=O)c2ccccc2S3=O)CC1 (stereo not given),inactive: 18.5%
18,CC(C)(C)OC(=O)N1CCC(c2c(C(=O)NCc3ccccc3)cnn2-c2ccc(F)cc2)CC1,inactive: 20.3%
19,CCCNC(=O)c1cnn2c(C(F)F)cc(-c3ccccc3)nc12,inactive: 0.15%
20,COc1ccc(CCNc2oc(COc3cccc(C)c3)nc2C#N)cc1OC,inactive: -13.5%
21,CC1(C)CC(=O)c2cc(-c3nc(-c4ccc(Cl)cc4)cs3)c(=O)[nH]c2C1,inactive: 0.874%
22,CCN1CCc2c(sc(-n3cccc3)c2C(C)NC(=O)Nc2cc(Cl)c(OC)cc2OC)C1 (stereo not given),inactive: 22.4%
23,Cc1nc2c(-c3ccccc3)c(C)nn2c(C)c1CCC(=O)NCCc1ccccc1,inactive: 13.9%
24,CC(C)c1ccc(NC(=O)N2CCN(c3ccc(Cl)c(Cl)c3)CC2)cc1,inactive: -15.7%

row,Compound,"activity change, negative = cytotoxicity"
1,O=C(COc1cccc(Cl)c1)N1CCC(c2nc3ccccc3o2)CC1,inactive: -5.25%
2,CCOc1ccc(NC(=O)CSc2nc3c([nH]c4ccccc43)c(=O)n2-c2cc(C)cc(C)c2)cc1,inactive: 3.09%
3,Cc1cccc(N2CCN(C(=O)c3cnc4c(C)cccn4c3=O)CC2C)c1 (stereo not given),inactive: -0.338%
4,COc1ccc(NC(=O)CSc2nc3c(oc4ccccc43)c(=O)n2-c2ccccc2)cc1OC,inactive: 3.66%
5,CCOC(=O)c1c(C)oc2c1cc(NS(=O)(=O)c1ccc(C)cc1)c1ccccc12,inactive: 26.1%
6,Cc1ccc(N2CCN(C(=O)c3c(C)oc4ncnc(N5CCCCC5)c34)CC2)c(C)c1,inactive: -6.51%
7,O=C(NC1CC(=O)N(c2ccc(Cl)cc2)C1)C1CCCC1 (stereo not given),inactive: 5.69%
8,COc1ccc(-c2cc(C)no2)cc1S(=O)(=O)N1CCN(c2ccccc2F)CC1,inactive: -16.6%
9,CC(=O)N1c2ccccc2CC1C(=O)NCc1cccc(Cl)c1 (stereo not given),inactive: -3.06%
10,CC1CCN(c2nc3c(S(=O)(=O)c4ccc(Cl)cc4)nnn3c3ccsc23)CC1,inactive: -5.74%
11,COc1ccc(CCNc2nc3c(-c4cccc(F)c4)nnn3c3ccccc23)cc1OC,inactive: -1.72%
12,Cc1cccc(NC(=O)CSc2nc(-c3ccccc3Cl)nc3c2Cc2c(CO)cnc(C)c2O3)c1C,inactive: -5.1%
13,COc1cc2c(cc1OC)n(Cc1ccc([N+](=O)[O-])cc1)c(=O)n1nc(-c3ccccc3)nc21,inactive: 3.33%
14,COc1cc2c(cc1OC)C(COc1ccc3c(C)cc(=O)oc3c1)N(C(=O)c1ccccc1F)CC2 (stereo not given),inactive: -7.93%
15,CCc1ccccc1NC(=O)c1ccc(CN2C(=O)CCn3nc(C)cc32)cc1,inactive: 3.44%
16,COCCNC(=O)C1CCN(c2nc3ccccc3nc2C(F)(F)F)CC1,inactive: 8.67%
17,Cc1ccccc1NC(=O)CSc1cn(CC(=O)N(C(C)C)C(C)C)c2ccccc12,inactive: -6.19%
18,Cc1ccccc1OCC(=O)Nc1ccc2nc(SCc3ccccc3)sc2c1,inactive: 17.4%
19,Cc1ccc(OCC(=O)Nc2nc(-c3ccc(Br)cc3)ns2)cc1C,inactive: -4.03%
20,CCc1ccc(NS(=O)(=O)c2c(C)nc3sc(CC)nn3c2=O)cc1,inactive: -17.1%
21,COc1ccc(CCNC(=O)C2CCN(c3nc4ccccc4nc3C(F)(F)F)CC2)c(OC)c1,inactive: -2.55%
22,Cc1ccc(C)c(CN2C(=O)C3(c4ccccc42)N(c2ccc(Cl)cc2)C(=O)CS3(=O)=O)c1 (stereo not given),inactive: -5.06%
23,COc1ccc(OCC(=O)NC2CC(=O)N(c3ccc4c(c3)OCCO4)C2)cc1 (stereo not given),inactive: 1.98%
24,COc1ccc(-c2ccc(NS(=O)(=O)c3cccc(C)c3)cc2)nn1,inactive: -2.77%

row,Compound,"activity change, negative = cytotoxicity"
1,Cc1ccccc1-c1nnc(SCC(=O)N(C)C2CCCCC2)o1,inactive: 6.66%
2,CCNC(=O)c1ccc(CSc2nc3ccncc3n2Cc2ccc(F)cc2)cc1,inactive: 0.108%
3,Cc1ccc(NC(=O)N2CCN(c3cc(-c4noc(C)n4)ccc3C)CC2)c(C)c1,inactive: 13.1%
4,Cc1cccc(CCNC(=O)CN(c2ccc(C(C)C)cc2)S(=O)(=O)c2c(C)nn(C)c2C)c1,inactive: -8.92%
5,CCn1c(C(=O)NCc2cc(Br)ccc2OC)cc2oc3ccccc3c21,inactive: -3.96%
6,CCN(C(=O)Cn1cnc2onc(-c3ccc(F)cc3)c2c1=O)c1cc(C)ccc1C,inactive: -1.91%
7,COc1ccc(CCNC(=O)c2ccc3c(c2)nc2n3CCC(C)C2)cc1OC (stereo not given),inactive: 17.8%
8,CCOC(=O)c1noc2nc(C)n(Cc3cccc(C#N)c3)c(=O)c12,inactive: 1.72%
9,COc1cccc(Cc2nc3ccccc3nc2SCC(=O)NCc2ccc(C)cc2)c1,inactive: 8.04%
10,Cc1cccc(NC(=O)Cn2c(=O)ccc3cc(S(=O)(=O)N4CCCC4)ccc32)c1C,inactive: 7.53%
11,CC(=O)c1ccc(NC(=O)C2CCC(CNS(=O)(=O)c3cccs3)CC2)cc1 (stereo not given),inactive: 17.2%
12,Cc1c(NC(=O)c2cc(-c3ccc(Cl)cc3)on2)c(=O)n(-c2ccccc2)n1C,inactive: 1.81%
13,CCOC(=O)c1[nH]c(C)c(CCC(=O)NCc2ccc(OC)cc2)c1C,inactive: 0.476%
14,COc1ccc(N2C(=O)CS(=O)(=O)C23C(=O)N(Cc2ccc(C)cc2)c2ccccc23)cc1Cl (stereo not given),inactive: 4.84%
15,COc1ccc(S(=O)(=O)Nc2ccc(-c3cn4ccsc4n3)cc2)cc1C,inactive: -0.517%
16,COc1ccc(CCN2C(=O)c3oc4cc(C)cc(C)c4c(=O)c3C2c2ccccc2F)cc1OC (stereo not given),inactive: 3.68%
17,COc1cccc(-c2nnc(SCC(=O)NC3CCCCC3)o2)c1,inactive: -1.23%
18,CCOc1ccc(CCNC(=O)C2CCN(C(=O)c3cc4sccc4n3CC)CC2)cc1OCC,inactive: -13.6%
19,Cc1ccc(NC(=O)c2ccc(CN3C(=O)CCn4nc(C)cc43)cc2)c(Cl)c1,inactive: -10.3%
20,CC(=O)c1ccc(NS(=O)(=O)c2ccc(-c3cc(C)no3)s2)cc1,inactive: -4.73%
21,O=C(COc1ccccc1F)Nc1nnc(SCc2cc(=O)c3ccccc3[nH]2)s1,inactive: 0.453%
22,Cc1cccc(CSc2nc(-c3cccs3)ccc2C#N)c1,inactive: 9.91%
23,COc1ccc(NC(=O)C2CCCN(S(=O)(=O)c3ccc4c(c3)oc(=O)n4C)C2)c(OC)c1 (stereo not given),inactive: 1.24%
24,Cc1c(NC(=O)c2cc(=O)c3ccccc3o2)c(=O)n(-c2ccccc2)n1C,inactive: -0.682%

row,Compound,"activity change, negative = cytotoxicity"
1,Cc1coc2c(C)c3oc(=O)c(CC(=O)NCCc4ccc(Cl)cc4)c(C)c3cc12,inactive: 17.9%
2,COc1cccc(N2CCN(C(=O)c3cccn3-c3nnc(N4CCCC4)s3)CC2)c1,inactive: 0.217%
3,COCCCNC(=O)c1ccc(-n2c(-c3ccccc3)cc3c2CCC(C)C3)cc1 (stereo not given),inactive: 7.58%
4,COc1ccc(CCNC(=O)Cc2c(C)c3c(cc(C)c4c(C)c(C)oc43)oc2=O)cc1,inactive: 20.1%
5,Cc1ccc(CSc2oc(-c3cccs3)nc2S(=O)(=O)c2ccccc2)cc1,inactive: 2.52%
6,COc1ccccc1N1CCN(c2ncc3c(n2)CCN(Cc2ccccc2F)C3)CC1,inactive: -3.17%
7,CC(=O)c1ccc(N2CCN(c3ncnc4c3nc3n4CCCC3)CC2)cc1,inactive: -11.2%
8,CCc1ccc(OCC(=O)N(Cc2ccc(C)o2)C2CCS(=O)(=O)C2)cc1 (stereo not given),inactive: -3.8%
9,COc1ccc(CCNC(=O)c2cnn(-c3ccc(F)cc3)c2C2CCN(C(=O)OC(C)(C)C)CC2)c(OC)c1,inactive: -5.84%
10,CCc1ccccc1NC(=O)N1CCc2c([nH]c3ccccc23)C1c1ccc(C)cc1 (stereo not given),inactive: -11%
11,CCOC(=O)N1CCc2c(sc3c2c(=O)n(Cc2ccccc2)c(=O)n3Cc2ccccc2Cl)C1,inactive: 12.5%
12,Cc1ccc2ncc(C(=O)N3CCN(c4ccccc4F)CC3)c(=O)n2c1,inactive: 7.6%
13,O=C(NCCC1=CCCCC1)c1ccc2c(=O)n3nc(Nc4ccccc4)sc3nc2c1,inactive: -11.8%
14,COc1ccc(NC(=O)c2c(NC(=O)COc3ccccc3)sc3c2CCC(C)C3)cc1 (stereo not given),inactive: 6.33%
15,O=C(Nc1ccccc1C(F)(F)F)c1ccc2oc(=O)c(S(=O)(=O)c3ccc(F)cc3)cc2c1,inactive: 3.41%
16,COc1ccc(-c2noc(CCC(=O)Nc3ccc(C(F)(F)F)cc3)n2)cc1,inactive: -16.1%
17,Cc1ccccc1CNC(=O)CN1C(=O)CSc2ccc(S(=O)(=O)N(C)C)cc21,inactive: 26.5%
18,Cc1ccc(NC(=O)CSc2nnc3[nH]c(=O)cc(-c4ccccc4)n23)cc1Cl,inactive: 5.41%
19,COCCCNC(=O)c1cn(CCOC)c(=O)c2c1c1ccccc1n2C,inactive: -1.04%
20,Cc1ccc(NC(=O)CC(C)S(=O)(=O)c2ccc3c(c2)NC(=O)CO3)c(Cl)c1 (stereo not given),inactive: 12.1%
21,CC(C)c1ccc2oc(-c3ccc(NC(=O)c4cccc(Br)c4)cc3)nc2c1,inactive: 5.05%
22,Cc1ccccc1Cn1c2ccccc2c2cnn(CC(=O)NC3CCC(C)CC3)c(=O)c21 (stereo not given),inactive: 21.8%
23,COc1cc2c(=O)n(CCC(=O)NCC3CCCO3)c(=O)n(CC(=O)Nc3ccc(C)cc3C)c2cc1OC (stereo not given),inactive: 1.47%
